From PubChem BioAssay AID686978 (National Center for Advancing Translational Sciences (NCATS), 2013)
Hit rate of the full screen: of about 420,000 compounds, about 64,000 (15%) were called active. The shares of active, inactive and inconclusive entries below differ from those in the screen. Calls follow the shape of the dose curve; as a rule, active = well fitted inhibition curve with a large enough effect; inconclusive = small, poorly fitted or top-dose-only effect; inactive = flat fitted curve, though single readings scatter. No potency is given beside an inconclusive call; the fits are too rough.

assay: qHTS for Inhibitors of human tyrosyl-DNA phosphodiesterase 1 (TDP1): qHTS in cells in absence of CPT; details: DT40 Tdp1-/- hTDP1 cells, no CPT, ATP luminescence, 48 h; activity change, negative = growth inhibition: at 46.2 µM (top of the series) unless noted; also: nearly all actives have a fitted effect of over 55% in size
Procedure, shortened: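 DT40 Tdp1-/-;hTDP1 cells, no CPT (DMSO vehicle only), 400 cells/well; compounds pin-transferred; ≥48 hr, 37 °C; CellTiter-Glo 30 min RT dark, luminescence read.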
% is scaled to controls: 0 for no effect and ±100 for the full control effect; potency is read from the fitted curve at half-maximal effect; tags tell the direction and shape of the fitted curve.

Row | Compound | Potency | activity change, negative = growth inhibition
1 | Cc1nc(C)c(C(=O)OC(C)C(=O)Nc2ccc(F)cc2)s1 (stereo not given) | inconclusive [inhibitor, single point] | 
2 | O=C(c1ccccc1)N(Cc1cccnc1)C1(C(=O)Nc2ccccc2)CCCCC1 | inconclusive [inhibitor, full curve, poor fit] | 
3 | Cc1cc(C)cc(NC(=O)Cn2nnc(C(=O)Nc3cc(C)cc(C)c3)c2N)c1 | inconclusive [inhibitor, single point] | 
4 | CCc1ccc(CNC(=O)CCN2C(=O)COc3ccccc32)cc1 | inconclusive [inhibitor, single point] | 
5 | COc1ccc(CCNC(=O)C(=O)c2c[nH]c3ccccc23)cc1 |  | inactive: -15.9%
6 | COC(=O)c1ccccc1NC(=O)N1c2ccccc2Sc2ccccc21 | inconclusive [inhibitor, single point] | 
7 | CCC(C)Nc1nnnc2c1sc1nc3c(cc12)COC(C)(C)C3 (stereo not given) | inconclusive [inhibitor, partial curve] | 
8 | COc1ccccc1-c1c(C)nn2c(C)cc(C)nc12 | inconclusive [inhibitor, single point] | 
9 | O=C(NCc1ccncc1)C1CCCCC1 |  | inactive: -27%
10 | O=C(N=C1SC2CS(=O)(=O)CC2N1c1ccc(OC(F)(F)F)cc1)C1CC1 (stereo not given) |  | inactive: 30.2%
11 | Cc1nc(-c2ccc(F)cc2)sc1CCNC(=O)c1ccco1 | inconclusive [inhibitor, single point] | 
12 | CCCCCC(=O)N1CCN(CCN=CC2=C(O)CC(c3ccc(OC)c(OC)c3)CC2=O)CC1 (stereo not given) |  | inconclusive: -5.41% [inhibitor]
13 | COc1ccccc1NC(=O)COC(=O)/C=C/c1ccc(OC)c(OC)c1 | inconclusive [inhibitor, single point] | 
14 | O=C(NCc1ccco1)c1cc(-c2ccccc2)nn1CC1CC(c2cccc([N+](=O)[O-])c2)=NO1 (stereo not given) | inconclusive [inhibitor, single point] | 
15 | Cc1c(C(=O)N2CCN(Cc3ccccc3)CC2)oc2c1C(=O)CC(C)(C)C2 | inconclusive [inhibitor, single point] | 
16 | Cc1ccc(NS(=O)(=O)c2ccc(CCC(=O)NC3CC3)cc2)cc1 |  | inconclusive: -30.8% [inhibitor]
17 | CSc1ccc(CCNC(=O)C(C)n2c(C)c3cnn(-c4ccccc4)c(=O)c3c2C)cc1 (stereo not given) | inconclusive [inhibitor, partial curve] | 
18 | CCOC(=O)c1cc(-c2ccccc2)n(CCCC(=O)Nc2cccc(Cl)c2C)c1C | inconclusive [inhibitor, single point] | 
19 | COc1cc(NC(=O)Cn2c(C)cc3ccccc3c2=O)cc(OC)c1OC | inconclusive [inhibitor, single point] | 
20 | Cc1ccc(NC(=O)C2(S(=O)(=O)c3ccc(Cl)cc3)CC2)c(Br)c1 | active: 16.4 µM | 
21 | CCOc1ccccc1C(=O)Nc1ccc2nc3n(c(=O)c2c1)CCCCC3 | active: 2.59 µM | 
22 | CN1c2ccccc2Oc2nnc(N3CCN(Cc4ccccc4)CC3)cc21 | inconclusive [inhibitor, single point] | 
23 | CN(C(=O)c1cccc(NC(=O)Cc2ccc(NC(=O)C3CCN(C(=O)C4CCCC4)CC3)cc2)c1)C1CCC1 | inconclusive [inhibitor, partial curve] | 
24 | O=C(O)COc1ccc(/C=C/C(=O)c2ccc3ccccc3c2)cc1 |  | inactive: 0.0786%

Row | Compound | Potency | activity change, negative = growth inhibition
25 | Cc1nnc(SC(C)C(=O)Nc2ccc(Cl)cc2Cl)[nH]c1=O (stereo not given) |  | inactive: 8.58%
26 | COc1ccc(-c2noc(N3CCC(C(=O)Nc4ccccc4OC)CC3)n2)cc1 | inconclusive [inhibitor, single point] | 
27 | COC(=O)c1sccc1NC(=O)CSc1ccccc1NS(=O)(=O)c1cc(Cl)ccc1Cl | inconclusive [inhibitor, single point] | 
28 | CC(=O)Nc1ccc(N2CCN(c3ccc(C(F)(F)F)cn3)CC2)nc1 | inconclusive [inhibitor, single point] | 
29 | CCOc1ccc(CN(C)C(=O)CN2C(=O)NC3(CCCc4ccccc43)C2=O)cc1 (stereo not given) | inconclusive [inhibitor, partial curve] | 
30 | CCOC(=O)Cc1csc(NC(=O)Cc2ccccc2[N+](=O)[O-])n1 | inconclusive [inhibitor, partial curve] | 
31 | COc1ccc(Oc2nc(OC)cc(OC)n2)cc1 |  | inactive: -28.1%
32 | CC(O)(c1cccc(F)c1)c1nc(-c2ccc3c(c2)OCO3)cs1 (stereo not given) | inconclusive [inhibitor, single point] | 
33 | Cc1ccc(C(=O)NCC(=O)OCC(=O)/C=C2\N(C)c3ccccc3C2(C)C)cc1C | inconclusive [inhibitor, partial curve] | 
34 | O=C(NC(=S)Nc1ccccc1N1CCCC1)c1cccc(F)c1 | inconclusive [inhibitor, single point] | 
35 | COC(=O)c1cc2oc(C)cc2n1CC(=O)Nc1ccc(C)cc1C |  | inactive: -26.9%
36 | CCOC(=O)[C@]12CCC=C1N(Cc1ccc3c(c1)OCO3)C(=O)[C@H](CC(=O)NCCCOC)C2 |  | inactive: -26.6%
37 | O=S1(=O)CC(N2CCSCC2)CN1Cc1cn(Cc2ccc(Cl)cc2)nn1 (stereo not given) |  | inactive: -18%
38 | O=C(NNS(=O)(=O)c1ccc2ccccc2c1)c1cccs1 |  | inactive: -10.6%
39 | COc1ccc(CCNc2nc(C)cc(C)c2C#N)cc1OC |  | inactive: -25.3%
40 | O=C(NCCNC1CCCCC1)c1ccco1 |  | inactive: -12.5%
41 | c1cn(CCCNC2CCCCCCC2)cn1 |  | inactive: 2.54%
42 | COc1ccc(-c2nc3c(=O)n(C)c(=O)nc-3n(C)n2)cc1 | active: 0.447 µM | 
43 | Cc1c(CN(C)C)c2c(n1Cc1ccccc1)C(=O)c1ccccc1-2 | inconclusive [inhibitor, single point] | 
44 | O=C(NNC1=Nc2cccc3cccc1c23)c1ccccc1Br | inconclusive [inhibitor, single point] | 
45 | C/C(=N\NC(=S)NC1CCCCC1)c1cccc(C(F)(F)F)c1 | active: 23.1 µM | 
46 | CC(OC(=O)C1CC(=O)N(Cc2ccco2)C1)C(=O)Nc1ccccc1[N+](=O)[O-] (stereo not given) |  | inactive: -4.54%
47 | CC1CN(c2ccc(C(=O)c3ccccc3C(=O)O)cc2[N+](=O)[O-])CC(C)O1 (stereo not given) |  | inactive: -25.1%
48 | COC(=O)c1ccccc1NC1CC(=O)N(c2c(C)cccc2C)C1=O (stereo not given) |  | inconclusive: -30.5% [inhibitor]

Row | Compound | Potency | activity change, negative = growth inhibition
49 | O=C(Cc1ccccc1)Nc1ccc(NC(=O)c2cccs2)c(Cl)c1 | inconclusive [inhibitor, full curve, poor fit] | 
50 | CC(=O)Nc1cc(C(=O)NCc2ccc(F)cc2Cl)ccc1Sc1ccc(Cl)cc1 | inconclusive [inhibitor, single point] | 
51 | Cc1cccc(N2CC(O)(c3cccs3)[N+]3=C2CCCC3)c1 (stereo not given) | inconclusive [inhibitor, single point] | 
52 | COc1ccc(N(CC(=O)NC2CCCC2)C(=O)Cn2nnc(-c3ccc(C)o3)n2)c(OC)c1 | inconclusive [inhibitor, single point] | 
53 | Cc1ccc(S(=O)(=O)N2CCC(c3nnc(SCCN4CCCC4)n3C)CC2)cc1 |  | inactive: -23.3%
54 | Cc1cccc(N2CCN(C(=O)c3cc4ccccc4oc3=O)CC2)c1C |  | inactive: -15.8%
55 | CCOc1cc(-c2nc(C)c(C(C)=O)n2O)ccc1OCC(=O)Nc1ccc(F)cc1 | inconclusive [inhibitor, partial curve] | 
56 | COc1ccccc1Nc1ncnc2c1c(C)c(C)n2CCCN(C)C | inconclusive [inhibitor, single point] | 
57 | O=C(Cn1c(=O)n(Cc2ccccc2)c(=O)c2oc3ccccc3c21)Nc1ccc(Cl)cc1 | active: 18.4 µM | 
58 | Cc1cc(/C=C(\C#N)C(=O)OCC(=O)N(C)c2c(N)n(Cc3ccccc3)c(=O)[nH]c2=O)c(C)n1CC(C)C | inconclusive [inhibitor, single point] | 
59 | CCCn1c(SCC(=O)Nc2c(C)cccc2CC)nnc1C(C)C |  | inactive: -3.96%
60 | CCN(CC)c1ccc(/C=C(\C#N)C(=O)NCc2ccccc2)cc1 | inconclusive [inhibitor, single point] | 
61 | CC(C)Cc1nc(N2CCN(C(=O)c3ccccc3)CC2)c(C#N)c2c1CCC2 | inconclusive [inhibitor, single point] | 
62 | Cc1cccc(-n2ccnc2SCC(=O)Nc2cccc(S(=O)(=O)NC3=NCCC3)c2)c1C | inconclusive [inhibitor, single point] | 
63 | COc1ccc2oc(C(=O)N(CC(C)C)C3CCS(=O)(=O)C3)c(C)c2c1 (stereo not given) | inconclusive [inhibitor, partial curve, poor fit] | 
64 | CCN1C(=O)/C(=C/c2cccs2)N(C)C1=S |  | inconclusive: -34.9% [inhibitor]
65 | O=C(CC(c1ccccc1)c1cc(Br)ccc1O)NCC1(c2ccccc2)CCCC1 (stereo not given) | inconclusive [inhibitor, single point] | 
66 | COc1ccc(CNC(=O)CCCc2cn(C)c3ccccc23)c(OC)c1 | inconclusive [inhibitor, single point] | 
67 | O=C1C(=Cc2ccc(Br)o2)C(=O)c2ccccc21 | inconclusive [inhibitor, single point] | 
68 | Cc1ccc(-n2nnnc2SCC(=O)Nc2ccc3c(c2)OCCO3)cc1C | inconclusive [inhibitor, partial curve] | 
69 | CCc1nc2ccccc2c(C(=O)OCC(=O)NCc2ccc3c(c2)OCO3)c1C | active: 18.4 µM | 
70 | Cc1ccc(OCc2nnc(SCC(=O)C(C)(C)C)n2Cc2ccco2)cc1 | active: 16.4 µM | 
